The text below walks through data of the supplement of paper PMC11417369.

± gives the standard deviation of the averaged measurements. Some of the results follow.

In this assay the test system is PfAP2-I AP2 domain 3 (GST-tagged). In words: gcPBM binding intensity (ln(normalized median fluorescence intensity)); higher = stronger DNA binding. The gist of the method:
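The binding buffer was 1× PBS containing 1% milk, 0.2 mg/ml BSA, 0.5% salmon testes DNA and 0.03% Triton X-100. In it, GST-tagged P. falciparum DNA-binding domains expressed in E. coli were applied for 1 h to an Agilent 4 × 180k array of primer-extended double-stranded 36-bp intergenic genomic probes plus negative controls. Binding intensity, read with Alexa488 anti-GST antibody and a 488 nm scan, is the highest Masliner-normalised natural-log median intensity across replicate spots of either probe orientation.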
On to “ACATATATATATATATATATATATATATAATATTTA [CACACA_negctrl_site633]”, for which the “gcPBM binding intensity (ln)” value was determined as 8.38 ± 0.42.

Turning to “ATTATGCTACAAGGAGAACACACAATTGCCACTTTT [CACACA_site8673]”, the “gcPBM binding intensity (ln)” value is 8.28 ± 0.64.

On to “TTTTTTTTGTGGTGTCGTACATATGTTTGTTTTAAG [XGTACX_site1759]”, for which the “gcPBM binding intensity (ln)” value came to 8.11 ± 0.45.

As to CCACGAGAATATATAGTGCATAATAATTTTTTTTTG, the “gcPBM binding intensity (ln)” value came out at 11.1 ± 0.4. The same measure for “GGTGATAATAAGCATACACACACACCCAAAAAAAAA [CACACA_site8137]”: 8.05 ± 0.34; for “AAAAAAAAAAAGAAAGCACACAATACATATGTATAA [CACACA_site1137]”: 7.93 ± 0.3. For “TAAATTTTTAAATACACACATACACCCATACAGACA [CACACA_site548]”, the “gcPBM binding intensity (ln)” value amounted to 8.52 ± 0.071.

As to “ATATATATCAGACACACACACATGTTTTAAAACTAT [CACACA_site77]”, the “gcPBM binding intensity (ln)” value worked out at 8.24 ± 0.56.

As for “TTATTTTAATAACCTACACACATTTTGTATATTTTA [CACACA_site4000]”, the “gcPBM binding intensity (ln)” value worked out at 7.71 ± 0.4. With “TTATAAATATTCTTGGGTACTTAAGATGATATGTAA [XGTACX_site5496]”, the “gcPBM binding intensity (ln)” value amounted to 7.67 ± 0.38. The value for “AAATGATGGAAAAAATAAATTTTTGTACAAAAATTA [CACACA_negctrl_site814]” was 7.58 ± 0.5. On to “ATATATATATTATTTCGTACATAATTATTTGCCTTA [XGTACX_site350]”, for which the “gcPBM binding intensity (ln)” value is 9.13 ± 0.21. The same measure for “TGATACTTTTTTTGTAGTACTCCTAAAATTATAAAA [XGTACX_site4340]”: 7.75 ± 0.41. The same measure for “TTTTTTTTATTTTAATGTACATTTTTTATTTGTTAT [XGTACX_site7189]”: 7.85 ± 0.47; for TAATAAAATATGTACGTGCACATAATTATACTAAAA: 10.3 ± 0.18. The same measure for “AAAAAAAAAAAAGAAACACACATATTTATATTTATA [CACACA_site6213]”: 7.5 ± 0.25; for “AAAAAAAAAAAAAATTGTACAAAAAAAATAAATAAA [XGTACX_site6816]”: 7.8 ± 0.26.

With “TTTTTCTATAAAAAAAAAAAAAAAAAATATATATAT [TGCATGCA_negctrl_site535]”, the “gcPBM binding intensity (ln)” value was determined as 9.01 ± 0.12.

For “TTGTATATTTTATGTACACACAATAAGTTAATATAA [CACACA_site4655]”, the “gcPBM binding intensity (ln)” value is 8.12 ± 0.22. The same measure for “AAAATAATGTATATATGTACATATAAATATATATAT [XGTACX_site8081]”: 8.88 ± 0.014; for “ATAAAAGGAAGAAAATGTACATATAATTATATGCAT [XGTACX_site8421]”: 7.93 ± 0.3; for “TATTATTGCATATTTACACACGTACTAATTTAAACA [CACACA_site970]”: 8.91 ± 0.42. The value for “TGTATACTATTAAATTGTACACATAAGAAATATTAT [XGTACX_site5839]” was 8.01 ± 0.26; that for “TTTTACAAATATAATGGGTGAGCTATCAAAATAAAT [GTGCAC_negctrl_site91]” was 7.78 ± 0.7; that for “ATGTTTTTAAAAAATTGTACATAATATTTTTTATAA [XGTACX_site7692]” was 7.89 ± 0.38. The same measure for “TATATATATATATATATAATACGAATTTGTAGTACA [TGCATGCA_negctrl_site224]”: 9.49 ± 0.56; for “ATATTAATTCGTTTTGTACACACATAATGAATAATT [CACACA_site8701]”: 7.71 ± 0.4. For “ATAAAAATCATGTTGGTGCGAAATTTTATTATCAGA [GTGCAC_site9735]”, the “gcPBM binding intensity (ln)” value amounted to 8.93 ± 0.18. The same measure for “AATTATTTACCCTATACACACAAAACAGACTAAAAA [CACACA_site6688]”: 8.04 ± 0.54; for “TTATGTATAAACACACGTACACACACTAAGTATATC [XGTACX_site3254]”: 8.04 ± 0.38; for “AAGGTATGATTAATCACACACATAAATATATATACA [CACACA_site2658]”: 7.84 ± 0.51. The same measure for “TTTAAAAAGATATATACACACATATAAATAAATATA [CACACA_site6436]”: 7.65 ± 0.52; for “ATTATATTTTTAAGTACACACATATATATATATATA [CACACA_site5925]”: 9.36 ± 0.28; for “AGCCTCGGGGTCATATATATATATATATATATATAT [CACACA_negctrl_site512]”: 9.39 ± 0.59. The value for “CCACGTATAATATGTACACACACATATATACAAAAA [CACACA_site8208]” was 8.1 ± 0.16; that for “AATATATATACTTTTTTTTTTTTTTTTTTTTTTTTT [CACACA_negctrl_site520]” was 9.745 ± 0.064; that for “TTTAGCACAAACAAAAAAAAAATAGAAAAAAATATA [CACACA_negctrl_site1772]” was 7.59 ± 0.61.

With “TATGTTTACATATACGTGCACATGAATGTATACATT [GTGCAC_site9894]”, the “gcPBM binding intensity (ln)” value was 10.7 ± 0.29.

Turning to “ACAAATTGTTAAAGGTGTACAATACATATATAAGAA [XGTACX_site4906]”, the “gcPBM binding intensity (ln)” value stood at 8.46 ± 0.56.

Take “AAAAAATAAATAAATAGTACTTTAAAAGAAAAAAAA [XGTACX_site5051]”: the “gcPBM binding intensity (ln)” value was 7.62 ± 0.63. The value for “AAATAAAAAATGGAAATCTTAACAAGAATCATTAAC [CACACA_negctrl_site1626]” was 7.51 ± 0.57; that for “TATATACAGAATATATGTACATATTCATTTTATATT [XGTACX_site5139]” was 7.5 ± 0.4; that for AAAGAAAACCAAGTGGTGCATTTTCGTTACTTCATC was 10.2 ± 0.16. Turning to “CAATGTTACTATAATACACACAATATGTATTTGTCT [CACACA_site6668]”, the “gcPBM binding intensity (ln)” value turned out to be 7.82 ± 0.59.

Take “CATATTTTGAACTTCACACATATATATATATATATA [CACACA_site4228]”: the “gcPBM binding intensity (ln)” value stood at 9.54 ± 0.71.

Regarding “AATAATTGTTATAGTTGTACAATACATATATTACAA [XGTACX_site30]”, the “gcPBM binding intensity (ln)” value worked out at 7.72 ± 0.6. The value for “CCTTTCTATTGAAAATGTACATATATATTATTATAT [XGTACX_site5527]” was 7.86 ± 0.39. The value for “AATAATTGTAGACATGCACACACAAATATTATATAT [CACACA_site8181]” was 8.14 ± 0.76; that for “TGTATATATAAAAATATACACACTGTATTATTGTAA [CACACA_site3757]” was 7.38 ± 0.47. For the sequence “AAATTAAAAGAAAATACACACCTGTGGGTGCTTATA [CACACA_site5143]”, the “gcPBM binding intensity (ln)” value turned out to be 9.4 ± 0.52. The value for “TATTTATTCACTTATTGTACTTATATATATAATAAA [XGTACX_site6147]” was 8.04 ± 0.38; that for “ATTTTTTTTTGTTTAATGTTATGTGGTCATTAAATT [CACACA_negctrl_site1177]” was 7.94 ± 0.38. The value for “ATATATTTTTTTTAGCGTACATGCAAAAAAAAAAAA [XGTACX_site4590]” was 8.28 ± 0.67. Turning to “TCATAAATTAAACACACACACACATCTGGATACCCC [CACACA_site9096]”, the “gcPBM binding intensity (ln)” value came to 8.19 ± 0.63.

For “TTTTGTTGTTGTTGTTGTACATAAATAATAAAATAT [XGTACX_site8681]”, the “gcPBM binding intensity (ln)” value is 8.04 ± 0.28. As to “AATTAACCGAAACACACACACATATATATATATATA [CACACA_site3963]”, the “gcPBM binding intensity (ln)” value is 9.28 ± 0.29. The same measure for “TATACACACAGACATGCATGCACATATATATATACA [TGCATGCA_site30]”: 8.56 ± 0.5; for “TATACACTTGTAATAACACACATTATTTTTTTTTTT [CACACA_site1324]”: 7.54 ± 0.67. The same measure for “ATAAAAAATTTAAGTATTTTTTACAAACCTATAAAT [GTGCAC_negctrl_site51]”: 7.38 ± 0.62; for “TTATATTTATATGTAATACAAAATAACAAAAAATTT [CACACA_negctrl_site1721]”: 7.53 ± 0.59; for “TATATATATATATCCACACACATACATATATTAATA [CACACA_site69]”: 9.26 ± 0.5. The value for “TTGGTAATTTTAAAATGTACTTATTATATATATATA [XGTACX_site5642]” was 8.94 ± 0.14; that for “TTTTTTATGATTAACACACACACAAAAAAAAAAAAA [CACACA_site4130]” was 8.05 ± 0.49. Take “TCATGTAACCATTCATGTACTCAAAAAAAAAAAAAA [XGTACX_site1027]”: the “gcPBM binding intensity (ln)” value was found to be 8.11 ± 0.71. The same measure for “TTTTATATATATATATATATATATATATATGTATAT [CACACA_negctrl_site173]”: 8.66 ± 0.17; for “AAATGAAAGAACAGCACACATATATATTATATATAA [CACACA_site2002]”: 7.8 ± 0.54; for “AAAAAAAAAACAAATACACACGCACCCAAAAAAAAA [CACACA_site8166]”: 8.7 ± 0.38. The same measure for “AACATATTTTTTCTTAAACACACACCGATATATATA [CACACA_site8919]”: 8.26 ± 0.7; for “AATATATATTTCTAAGATAAAACCCAAGGATAAAAA [CACACA_negctrl_site735]”: 7.7 ± 0.63. The value for “TCTGTAAATATGTATACACACATATCTGATCAATAT [CACACA_site5743]” was 8.02 ± 0.43; that for “ATTTCATTAAAGATTACATGCAATTCTATATTATTT [TGCATGCA_site260]” was 7.67 ± 0.46. On to “AAAACACGCGGACACACACACACACGCCCACATATA [CACACA_site7105]”, for which the “gcPBM binding intensity (ln)” value was found to be 8.34 ± 0.42.

“AACATAAATTACTTTTTACACACTAATATAAAATAC [CACACA_site8297]”: the “gcPBM binding intensity (ln)” value was 8.04 ± 0.47.

On to “AATTGCTCGATATATGCACACAGTTTTGTTATTTTT [CACACA_site8465]”, for which the “gcPBM binding intensity (ln)” value stood at 9.02 ± 0.45.

For “ACTTTCAAGGATGTACGTACATATGTATTTTATAAC [XGTACX_site6714]”, the “gcPBM binding intensity (ln)” value worked out at 8.25 ± 0.35. The value for “ATAAAAATAAAAGACGCATGTTCTTAAAATAAGAAC [TGCATGCA_site189]” was 7.39 ± 0.7; that for “GTGTGATCTTTTGAAAGTACATTTTTTTTTTTTTTT [XGTACX_site6311]” was 8.54 ± 0.65. The value for “ATATATATATATAATGCACACATTATGAATTATGTA [CACACA_site3384]” was 11.3 ± 0.26; that for “AAACAAAATGGTAACACACACATATATATATATATA [CACACA_site1939]” was 9.55 ± 0.49; that for “AGGTCATACATAAAATGTACATATATATAAATATAT [XGTACX_site7147]” was 7.62 ± 0.4. The value for “TGAACACCCAAATACACACACTCAAAAAAAAAAAAG [CACACA_site5467]” was 7.79 ± 0.37; that for “ACAAGAATACACCACGCACACACACTAGAGAAAAAA [CACACA_site9276]” was 8.39 ± 0.28. Turning to “TAATAAAGTATTTTGCGTACTTATTTTATTCTTCTA [XGTACX_site2095]”, the “gcPBM binding intensity (ln)” value is 7.665 ± 0.035. The same measure for “ATTGTGTGAACAAAATGTACATTTTCTCTACATTAA [XGTACX_site1333]”: 7.91 ± 0.41; for “TGGCATATATATAAATGTACTTTCTTTCTATCTGTT [XGTACX_site8483]”: 7.51 ± 0.52; for “GCCCCCAAATTATGTGTGCACTTTATATTCCTGAGA [GTGCAC_site9474]”: 10.4 ± 0.23.

With “TTATATATATGTAATTGTACTTTTAATTTTTTTTTA [XGTACX_site4357]”, the “gcPBM binding intensity (ln)” value was determined as 7.68 ± 0.42. The value for “TATTTTATAATAGGCACACATATAAAAATATATATA [CACACA_site4127]” was 7.96 ± 0.52; that for “TAATTTTTTTTAAATACACACTGAAATGTGAATTTT [CACACA_site4476]” was 7.5 ± 0.47.
